In all, about 33,000 sequences were measured (“E-score (-0.5 to 0.5)”: median about -0.012, highest 2% from about 0.29 on). The list shows a part of the results.
These sequences were tested against T1, Ybr033w (UniProt P38073) (assay: PBM E-score (8-mer binding enrichment) (E-score (-0.5 to 0.5)); higher = stronger / more preferred TF binding; most listed sequences are background and not binding sites). Details: protein concentration: 200 nM; construct: GST-full length.
T1 sequence: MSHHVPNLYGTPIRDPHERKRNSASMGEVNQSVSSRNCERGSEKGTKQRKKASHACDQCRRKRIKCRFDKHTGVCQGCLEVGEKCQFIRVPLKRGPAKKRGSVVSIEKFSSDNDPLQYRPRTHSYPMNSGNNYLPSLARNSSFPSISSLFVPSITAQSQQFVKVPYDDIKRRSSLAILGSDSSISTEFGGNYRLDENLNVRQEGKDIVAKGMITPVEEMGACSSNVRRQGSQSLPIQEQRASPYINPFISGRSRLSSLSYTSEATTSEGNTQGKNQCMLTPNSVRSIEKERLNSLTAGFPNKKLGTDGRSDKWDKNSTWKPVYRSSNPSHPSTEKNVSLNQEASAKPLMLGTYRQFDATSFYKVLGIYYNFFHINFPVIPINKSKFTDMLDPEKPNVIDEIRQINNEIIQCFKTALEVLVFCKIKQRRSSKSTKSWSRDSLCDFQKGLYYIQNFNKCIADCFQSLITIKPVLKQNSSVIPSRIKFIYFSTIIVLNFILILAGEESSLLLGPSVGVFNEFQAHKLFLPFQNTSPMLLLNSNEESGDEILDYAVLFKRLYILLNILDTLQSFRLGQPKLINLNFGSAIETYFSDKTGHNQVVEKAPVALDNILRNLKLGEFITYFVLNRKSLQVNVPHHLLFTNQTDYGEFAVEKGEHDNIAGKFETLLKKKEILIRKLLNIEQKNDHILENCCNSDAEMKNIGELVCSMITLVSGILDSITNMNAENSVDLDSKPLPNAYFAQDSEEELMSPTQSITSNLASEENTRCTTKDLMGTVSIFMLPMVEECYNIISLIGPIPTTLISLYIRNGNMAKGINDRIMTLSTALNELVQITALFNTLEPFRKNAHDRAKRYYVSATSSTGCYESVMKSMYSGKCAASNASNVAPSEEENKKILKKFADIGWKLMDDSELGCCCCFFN
Method in brief: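 Universal all-10-mer Agilent arrays, double-stranded by primer extension on fresh or once-stripped slides, were probed with about 100-200 nM GST-tagged yeast transcription factors made by PURExpress. Fluorescent anti-GST detected bound protein, and masliner normalised the scans. E-scores from the Universal PBM Analysis Suite were given to each ungapped eight-base word pooled with its reverse complement.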

Row | Sequence | PBM E-score
1 | TCAGTCAA | -0.0701
2 | ACAGCCAA | -0.0314
3 | GGCGACAA | -0.263
4 | CGCGGAAC | 0.0781
5 | CAGGGCGC | -0.163
6 | AGTGTAAG | 0.0687
7 | CCCTAAGG | -0.21
8 | ACAAGGGC | -0.276
9 | AGCGGAGA | 0.0585
10 | ACTATATC | 0.229
11 | GTCGGATA | 0.168
12 | CGAGGCCA | -0.183
13 | ATGGAGAG | -0.12
14 | CATAGCTA | -0.246
15 | AATCTCCT | 0.0894
16 | AGGCGACG | -0.072
17 | GGGGACCC | -0.247
18 | CCCGTGAC | -0.262
19 | AACCATCA | 0.148
20 | ATTCATAC | 0.184
21 | ATGCAAAT | 0.0849
22 | ATGAGTGC | 0.0844
23 | CTAAAAAA | 0.267
24 | ACAACAGG | 0.104
25 | GATTTTAA | 0.122

Row | Sequence | PBM E-score
26 | AAAATCAG | 0.188
27 | CTCTTATC | 0.209
28 | CTTATCAA | 0.214
29 | ATGGATTG | 0.263
30 | CAAGGTAA | 0.0861
31 | AGTACTAC | 0.229
32 | GCTCTACA | -0.0497
33 | GGCTGGCA | -0.324
34 | AGAGAAGC | 0.0136
35 | ACGATTGG | 0.00198
36 | CCATCTCG | -0.179
37 | CTGGTGTA | -0.186
38 | ATGCCTTC | -0.0958
39 | AGGGAGCG | -0.132
40 | AGCGGTTA | -0.056
41 | CATACCGG | -0.102
42 | ATATTCAT | 0.226
43 | CCGTTGAC | -0.185
44 | ACCGTCTC | 0.0143
45 | ACACCTAC | -0.0252
46 | ACCGACCA | 0.0105
47 | ATCAAGGA | 0.0684
48 | AAAGATCA | 0.173
49 | CCTTTCCC | -0.0266
50 | ATGTAAAA | 0.281

Row | Sequence | PBM E-score
51 | AGGGCAAG | 0.0869
52 | ATACGATG | 0.153
53 | AACAGGGG | -0.127
54 | GCTTCGCA | -0.207
55 | GAGCGAGC | 0.0539
56 | ACGTATGG | 0.115
57 | ACTGTCTA | -0.0253
58 | ACTTCAAG | 0.0875
59 | CACAGCCC | -0.319
60 | GTGAAGGA | 0.0608
61 | CAAACCGA | -0.144
62 | ATGAACAC | 0.0659
63 | ACGAAAAT | 0.259
64 | GCAAAGAA | 0.141
65 | AAAAATTT | 0.283
66 | AGCGGTAA | 0.0553
67 | ACTATACG | -0.0114
68 | AGTTAGCA | 0.148
69 | ATAGGCAC | -0.0539
70 | ACAATAGG | 0.185
71 | ACCAGAGG | 0.0474
72 | AATGCATA | 0.126
73 | AATAAAGA | 0.267
74 | AGTGCGAG | -0.0629
75 | AGAGGCCA | -0.233

Row | Sequence | PBM E-score
76 | GACTCCTC | 0.00762
77 | CCGGGATC | 0.0254
78 | TCGTCTAA | -0.165
79 | ATCGTGGG | -0.0289
80 | AGCCCGAT | 0.0653
81 | TGTCCCAA | -0.0715
82 | CGTATCTC | -0.0891
83 | ATAGTCTG | 0.047
84 | GACAGGGC | -0.285
85 | ATAGCGAG | 0.0301
86 | GACTGGGA | -0.159
87 | AGGTCAAA | -0.0711
88 | CTCGTCGC | -0.172
89 | ACTCAGCA | 0.0235
90 | CTCCCAAC | -0.248
91 | GGTTGCTA | -0.175
92 | ACCTGTGC | -0.0835
93 | GTCTTCGA | -0.158
94 | CGAGTGAG | -0.0821
95 | AAGAGTGA | 0.0594
96 | TCTCCAGA | -0.189
97 | CTACCAAA | 0.0674
98 | AGAACACT | 0.0257
99 | GCGTCATA | 0.103
100 | AACCCGCA | -0.00368

Row | Sequence | PBM E-score
101 | AGGCTTGG | -0.115
102 | AGAAAGTC | 0.173
103 | ATAAATCG | 0.218
104 | GAGTCGAC | -0.0211
105 | ACATAGTC | 0.0687
106 | ACTCTCAG | 0.0115
107 | GACAAGCC | -0.0662
108 | CGTCGACA | -0.0473
109 | ACCCTGCT | -0.345
110 | CATACAAG | -0.0705
111 | CCGGAAAC | 0.14
112 | GGTCAGAA | 0.00198
113 | GGAATTAA | 0.349
114 | ATGTGTTG | 0.122
115 | CTCCGAAC | -0.172
116 | CCATGAGC | -0.151
117 | ACCTCTCT | -0.126
118 | ATCAGGCA | 0.0225
119 | GCATGTAA | 0.0977
120 | AGCCTGAC | -0.25
121 | AAAGTGAT | 0.204
122 | TAGATCAA | 0.161
123 | CACATTAA | 0.156
124 | CAATCTGG | -0.0491
125 | GATACCCA | 0.0285

Row | Sequence | PBM E-score
126 | AACGCTCC | -0.0124
127 | GACCCACC | -0.317
128 | ACTAAAGC | 0.0861
129 | GCACGATA | 0.0979
130 | AAAGCGTA | 0.0704
131 | ACTCATCC | 0.114
132 | AAACAGCC | -0.0998
133 | ATGATTGG | 0.118
134 | GCTACGAA | -0.0523
135 | CACGTATA | 0.0912
136 | CGTCCGGA | -0.114
137 | ACGTCTAT | -0.104
138 | CCTGGGCA | -0.239
139 | ATTAAGCG | 0.0998
140 | CATCGGAC | -0.235
141 | AGCTATGA | 0.0695
142 | AAATCTGA | 0.221
143 | GCGGTGAA | -0.0498
144 | TAACCTCA | 0.0768
145 | AGCGTTCA | -0.158
146 | GGCAAACC | -0.232
147 | CATACCTC | 0.0715
148 | AGAAAACG | 0.149
149 | GGACTCCA | -0.0628
150 | CCCCATGA | -0.148

Row | Sequence | PBM E-score
151 | CCATCAAG | 0.0693
152 | ACCATCCA | -0.093
153 | CGATATCA | 0.152
154 | GCCGGTGA | -0.228
155 | AATCGCCG | -0.173
156 | CACCGTCC | -0.0719
157 | CCGACACA | -0.202
158 | ATTATATA | 0.297
159 | AGGCCGCA | -0.0886
160 | AGGTCCAT | -0.155
161 | CACTCACA | -0.155
162 | TCGCTAAA | 0.0515
163 | ACTGTTCA | -0.106
164 | AGGAACTC | -0.0312
165 | GACACATA | 0.0666
166 | AGTAACGA | 0.0428
167 | AACGCAGC | 0.01
168 | AAGGTAGT | 0.0535
169 | AAGCGACA | -0.0531
170 | CGCTTGAG | -0.0728
171 | AATTTCGT | 0.171
172 | AGATAAAA | 0.286

Reference: the supplement of paper PMC3334620
